# Source: article PMC6919601, “Identification of Plasmodium dipeptidyl aminopeptidase allosteric inhibitors by high throughput screening” (PLoS ONE, 2019)
# The whole screen tested about 110,000 compounds, of which about 230 (0.21%) showed an effect of 50% or more. The list shows a part of the results.
# Biological target: DPAP1 (Plasmodium falciparum, UniProt Q8IIJ9)
# Experiment: primary screen, percent inhibition; read by cleavage of a fluorogenic dipeptide substrate; higher = more effect of the substance
# Design: species or system P. falciparum D10 trophozoite lysates; single well
# 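Also: 30 min substrate incubation versus DMSO and 10 µM JCP410 controls.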
# Chain of DPAP1 (Q8IIJ9 whole entry, looked up): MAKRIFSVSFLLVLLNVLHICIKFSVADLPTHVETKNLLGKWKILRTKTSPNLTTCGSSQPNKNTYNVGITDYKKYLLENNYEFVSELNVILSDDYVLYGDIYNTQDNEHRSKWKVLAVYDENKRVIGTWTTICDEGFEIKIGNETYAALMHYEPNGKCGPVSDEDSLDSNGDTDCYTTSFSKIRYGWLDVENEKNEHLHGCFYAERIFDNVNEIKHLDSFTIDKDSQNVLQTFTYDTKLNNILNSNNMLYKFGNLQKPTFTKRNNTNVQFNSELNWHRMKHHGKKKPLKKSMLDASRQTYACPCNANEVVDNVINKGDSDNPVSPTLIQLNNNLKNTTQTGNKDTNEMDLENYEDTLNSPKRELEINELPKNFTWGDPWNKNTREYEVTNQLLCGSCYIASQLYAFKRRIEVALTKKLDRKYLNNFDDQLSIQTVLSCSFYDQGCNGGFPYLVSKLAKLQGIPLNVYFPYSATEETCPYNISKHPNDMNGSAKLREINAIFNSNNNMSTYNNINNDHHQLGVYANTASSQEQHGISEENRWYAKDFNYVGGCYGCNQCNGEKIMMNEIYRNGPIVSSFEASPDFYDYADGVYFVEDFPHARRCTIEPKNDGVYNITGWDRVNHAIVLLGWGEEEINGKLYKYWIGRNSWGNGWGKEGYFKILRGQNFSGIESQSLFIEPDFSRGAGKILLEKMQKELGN
row,Structure (SMILES),% Inhibition @ 10 uM
1,CCOc1ccccc1-n1nnc(-c2nc(-c3cccnc3)no2)c1N,5.95%
2,CCN1C(=O)CC(C(=O)Nc2ccc(OC)cc2)S/C1=N\c1ccc(OC)cc1 (stereo not drawn),-3.78%
3,Cc1ccc(P(=O)(O)c2ccc(C)cc2)cc1,-3.93%
4,Cc1ccccc1OCC(=O)Nc1ccccc1C(N)=O,-4.97%
5,Sc1nnc(-c2ccc3ccccc3n2)n1-c1ccccc1,-1.46%
6,CC(C)(C)C1CCc2c(sc3ncn(CC(=O)Nc4ccccc4)c(=O)c23)C1 (stereo not drawn),3.97%
7,Cc1ccc(S(=O)(=O)Nc2cccc(/C=C/C(=O)O)c2)cc1,-1.97%
8,COc1ccc(Br)cc1CNC(=O)CCc1nc(-c2ccc(C)cc2)no1,-1.59%
9,CCOc1ccc(C(=O)Nc2ccc(Br)c(C)c2)cc1,0.823%
10,Cc1noc2ncn(CC(=O)NCCN3CCOCC3)c(=O)c12,2.4%
11,C=C(C)CN(CC)Cc1ccc(-c2ccccc2[N+](=O)[O-])o1,-1.75%
12,CCc1ccc(NC(=O)c2cccc(OC)c2)cc1,-7.08%
13,COCCCn1c(=N)c(S(=O)(=O)c2ccc(C)cc2)cc2c(=O)n3cccc(C)c3nc21,5.12%
14,O=C(Nc1cc(Cl)c(O)c(Cl)c1)C1CCCCC1,2.03%
15,CC(C)OCCCNC(=O)Cn1ncc2c(Cl)cccc21,0.596%
16,Cc1nc2sc3c(Cl)ncnc3c2c2c1CCCC2,-8.67%
17,CN(c1ccccc1)S(=O)(=O)c1ccc(N)cc1,3.57%
18,C#CCOc1nc(OCC#C)nc(N2CCCCC2)n1,-2.92%
19,CC[C@@H](C)[C@H](NC(=O)Cc1c[nH]c2ccccc12)C(=O)N[C@@H](CCc1ccccc1)C(=O)CO,3.66%
20,CC(C)C(=O)Nc1ccc(C(=O)Nc2ccccc2C(F)(F)F)cc1,-5.14%
21,CC(=O)c1ccc(NC(=O)COc2ccc(Cl)cc2C)cc1,-0.116%
22,COCCn1c(CCC(=O)NCCc2ccc(OC)c(OC)c2)nc2cccnc21,-4.24%
23,CCN(CC)CCN(CC)Cc1cccc(F)c1,2.7%
24,COc1ccc(CCNC(=O)c2cc(=O)c3cc(Cl)ccc3o2)cc1OC,-3.24%
25,COc1ccc(-c2noc(-c3nnn(-c4ccc(C(C)C)cc4)c3N)n2)cc1,-3.88%
26,COc1ccc(C(=O)N2CCN(c3cccc(Cl)c3)CC2)cc1OC,-2.22%

row,Structure (SMILES),% Inhibition @ 10 uM
1,Cc1cc(NC(=O)COCc2cc(-c3ccc4c(c3)OCO4)on2)nn1Cc1ccc(Cl)cc1,1.34%
2,Cc1cc(=O)n(CC(=O)NCc2ccc(OC(C)C)cc2)c2c1c(C)nn2C,3.82%
3,CCOc1ccc(C(=O)Nc2ccccc2OCC)cc1,3.49%
4,CC(=O)Nc1ccc(NC(=O)Cn2cnc3ccccc3c2=O)cc1,-3.78%
5,CSc1ncccc1C(=O)NCc1ccccc1C(F)(F)F,1.68%
6,C(=C\c1nc2cccnc2[nH]1)/c1ccccc1,-10.5%
7,CCOC(=O)c1c(C)[nH]c(C)c1S(=O)(=O)NCC1CCCO1 (stereo not drawn),-5.94%
8,CN(CCNC(=O)c1cc2c(O)nc3ccccc3c2s1)Cc1ccccc1,1.23%
9,Cc1ccc(-c2noc(CNC(=O)C34CC5CC(CC(C5)C3)C4)n2)cc1,2.14%
10,Cc1cccc(NS(=O)(=O)c2cccc(C(=O)Nc3cccc(C(=O)O)c3)c2)c1,-3.55%
11,CCC(=O)N1CC(=O)Nc2ccc(C)cc2C1c1ccccc1 (stereo not drawn),-3.77%
12,CC(C)c1nc2sc3c(NCCCN(C)C)ncnc3c2c2c1COC(C)(C)C2,3.73%
13,Cc1cc2nc(NC(=O)C3C4C=CC(C4)C3C(=O)O)sc2cc1C (stereo not drawn),-1.28%
14,COCCCN1C(=O)C(O)=C(C(=O)c2ccccc2)C1c1ccc(C)cc1 (stereo not drawn),5.12%
15,COc1ccc(-n2nnc(-c3nsc(NC(=O)c4ccc(Cl)cc4)n3)c2C)cc1Cl,4.23%
16,Cc1cc(NC(=O)c2ccc(C(=O)Nc3cc(C)c(O)c(C)c3)cc2)cc(C)c1O,4.07%
17,O=C(N1CCOCC1)C12CC3CC(C1)CC(n1cnc(Cl)n1)(C3)C2,-1.61%
18,COc1ccc(CNC(=O)CSCc2cccc(Br)c2)cc1,0.0719%
19,O=C(Cn1nnc(-c2ccc(OCc3cccc(C(F)(F)F)c3)cc2)n1)N1CCOCC1,2.1%
20,c1ccc(-n2ncc3c(N4CCN(C5CCCCC5)CC4)ncnc32)cc1,2.4%
21,O=C(c1ccc(S(=O)(=O)NCC2CCCO2)cc1)N1CCN(c2ccccc2F)CC1 (stereo not drawn),4.39%
22,Cc1cc(C)cc(NC(=O)COc2ccccc2C)c1,1.92%
23,COc1cc(OC)cc(-n2nnc(-c3nc(-c4ccc5c(c4)OCO5)no3)c2N)c1,8.09%
24,O=C(Cc1ccc(F)cc1)N1CCn2c(nc3ccccc32)C1,2.34%
25,O=C(NCc1ccco1)c1sc2ccccc2c1Cl,-3.69%
